# Measured values: article PMC12136788
# Some of the results follow.
# T1: UNK ZnF1-3 (human, UniProt Q9C0B0 31-174)
# T1 sequence: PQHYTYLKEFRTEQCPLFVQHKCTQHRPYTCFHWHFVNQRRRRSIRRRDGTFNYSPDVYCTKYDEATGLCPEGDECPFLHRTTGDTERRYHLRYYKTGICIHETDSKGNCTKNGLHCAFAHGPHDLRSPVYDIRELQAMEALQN
# B1: 14949008_14949349_647_CDS_ENSMUSG00000021737_ENSMUST00000022256|mouse|control|control (ssRNA)
# RNA: GGGAGUUCUACAGUCCGACGAUCGAGAAAGAGCUCUGCUGCCUGUUUGAAGUCACGGAUAGCCACACAAUAUAAGCCCUGGUACACUUUCAGCCUGUUUCGCCUGUCCCAGUCUCCGCCUUCCUCUAUCAGGCUUUUGGCCUUCAACAGAGGAUUGAGCAUCA
# B2: chr8:95530139:95530140:-_ENSG00000164944_ENST00000437199|hu_hu|motif|central (ssRNA)
# RNA: GGGAGUUCUACAGUCCGACGAUCAACAUCACUGGAAGACUGAACCACCACCAAAAUAAGUAUGCAUGCGUAAUUAUAAGCGGCUGACUUCUUAGAUUUGGAAUCACCCAAGGCUUCUUUGGAAUAGUACUCCAUUAGAGUAAUCAACAGAGGAUUGAGCAUCA
# B3: 171897380_171897500_268_CDS_ENSMUSG00000026675_ENSMUST00000027989|mouse|control|control (ssRNA)
# RNA: GGGAGUUCUACAGUCCGACGAUCACCCCGGACCACCGACUGCAGGCUGCUGACAUCCAUCUGCACGAUGCUGACUUCGGCGGAGGGGUGAGAGGCCAGCAGGGUAUCUCGAACAGCUCUUGCUUUGCUCAGGUUCCUACACGCCAACAGAGGAUUGAGCAUCA
# B4: chr19:59067291:59067292:-_ENSG00000130725_ENST00000253023|hu_hu|FALSE|FALSE (ssRNA)
# RNA: GGGAGUUCUACAGUCCGACGAUCUGGGUCGGGGGAGGCAGCGCCGACCUUAAUCACAUGGUGUUAAAAAAAAAAAAAUAACUAGGGGCACGUGGCAGGAAGGGGAGGCAAGGCCAAGGCAGGGGAUUCCCCCACCGGCCGCCCCAACAGAGGAUUGAGCAUCA
# B5: 71574628_71575803_532_CDS_ENSMUSG00000053470_ENSMUST00000065509|mouse|control|control (ssRNA)
# RNA: GGGAGUUCUACAGUCCGACGAUCUUGAUCUCCAAGAAACCGAACAGAAGUUAUGGCUCCCAAGCCAGCUUUGUCUAGAAGAGAUUUGUACAUUAUUGCAGGCCACUGAAUAACUUGCUCAGGAACUUCAGGUGAUUUUCGUUCCAACAGAGGAUUGAGCAUCA
# B6: chr4:144391305:144391306:+_ENSG00000109458_ENST00000262995|hu_mus|FALSE|FALSE (ssRNA)
# RNA: GGGAGUUCUACAGUCCGACGAUCCGGUGGAGAGAGAGAGAGAGCGAGCGAGCUAAGAGUAGUAAUCUUGAAUUCCUGCCUAAUUCAUUCAAAAUCACACUAUGCUGCUGACAGUGAACGCCAACUGUUUCAUUAAUUCUAAACCAACAGAGGAUUGAGCAUCA
# B7: 29611512_29611714_1436_CDS_ENSMUSG00000038084_ENSMUST00000160597|mouse|control|control (ssRNA)
# RNA: GGGAGUUCUACAGUCCGACGAUCGUUAGGAUUCUGCAUGUAAGCUUUGCUGAUACUGAAAAUAGUUUCCUUUGUGUCGGGAGCCAUGCCUGAUGUCACGGUGUUGAUGACACCAGGCAAGUCCACGAGCACCAUCCUCUGCAGCAACAGAGGAUUGAGCAUCA
# B8: chr1:54531653:54531654:-_ENSMUSG00000073678_ENSMUST00000097739|mus_mus|FALSE|FALSE (ssRNA)
# RNA: GGGAGUUCUACAGUCCGACGAUCACACAGAAGACAAACUCCUUCCAGAGGACAGAGCGUCCUGAAGCCAGCUCUCAUAAACUACCCUCCUGCUAAUUUAUCCACAGUCCCCAACAGUUACUUAGAUAAUCAUUACUCGAUCAACAACAGAGGAUUGAGCAUCA
# B9: 33361647_33361767_243_3pUTR_ENSMUSG00000018965_ENSMUST00000019109|mouse|control|control (ssRNA)
# RNA: GGGAGUUCUACAGUCCGACGAUCCGCCUGCUCCGCCAGUCGCGCCCGCUGCAGCAGCUGCUCUCGAUCCCCCAUGUCGCUCGCGACUCGGCCUCGCCUCGCACGCCCACACCGCCUGCUCACUCGCUCGCUCGCUCGCCCGCCCAACAGAGGAUUGAGCAUCA
# B10: chr7:65705475:65705476:+_ENSG00000169902_ENST00000304842|hu_hu|hu_hu_hu_mus_True|38_108 (ssRNA)
# RNA: GGGAGUUCUACAGUCCGACGAUCUCUAUCCGGUGAUGGCACUCCAUGGCAUGCUGGCCCAGGUAAAACACGGUCACAGAACUAAUCACCAGACACGCCAAUAGUAAGUUCUGCUUCAGCUUCCCAACCAUCUUGAUGUGGUUACAACAGAGGAUUGAGCAUCA
# B11: chr17:49239293:49239294:+_ENSG00000239672_ENST00000393196|hu_mus|motif|central (ssRNA)
# RNA: GGGAGUUCUACAGUCCGACGAUCCACAGGGAGUCACAGCUCCCAAAGGUUCCUUCCAGGUCAAAGAAGUUCCAGAAAUAUCGGGGGUUGCUGGUCCCCUGCCUGUGAGAACAAGAGUAAGCAGGUAGAAAACCAGCACCGUCCCAACAGAGGAUUGAGCAUCA
# B12: chr10:57206289:57206290:+_ENSMUSG00000019878_ENSMUST00000079833|mus_mus|motif|central (ssRNA)
# RNA: GGGAGUUCUACAGUCCGACGAUCGCCGGCACGUUGGAACUCUGCUUCAUUGUUAGCCCGGUGCAGGGAUUCCAAAUUCGGCGGCCGAACGCGGAGGUCGCAGCGGCGGCGGCGGCGGCGGCGGCGGCAGCAGCGGCGGUGGCACAACAGAGGAUUGAGCAUCA
# B13: 63476008_63481888_13387_CDS_ENSMUSG00000030451_ENSMUST00000076226|mouse|control|control (ssRNA)
# RNA: GGGAGUUCUACAGUCCGACGAUCCUGGAUGCGGUUCAGCUCCACCACAGGCCCAUGUUGGCGAUCUCGCACCAUAGUUGCUUGUACUACCUUCCUGAAAGCUGCUUCCUUGCCCUGAGAUAUUAAGAUCCCACGGAGUGUGUCCAACAGAGGAUUGAGCAUCA
# B14: chr11:98018192:98018193:-_ENSMUSG00000018160_ENSMUST00000107545|mus_mus|FALSE|FALSE (ssRNA)
# RNA: GGGAGUUCUACAGUCCGACGAUCUCCUGAACUGCCUGGGGAUUUGGACCCACCCGUGCUGGUAGGUGGGGUGAAAGGUCUAUUAGAAGAACUGUGAGAUGGGGACUUCCCCUCAGUGUCUGCCUUCUUCCGCUUUGGAGGCUUCAACAGAGGAUUGAGCAUCA
# B15: chr10:105151994:105151995:-_ENSG00000173915_ENST00000309579|hu_hu|FALSE|FALSE (ssRNA)
# RNA: GGGAGUUCUACAGUCCGACGAUCUUUAAAAUCCAUUUAUGUUGCUUUCACAGCUGGAGUUUUUUUGGACCUUAACUUGAAAUAUAAGACAAUCAAUGCAAUGCUUCCAUAUGUGGCCAGUACACAGUUCAUUCUACCUGUGAGCAACAGAGGAUUGAGCAUCA
# B16: chr1:33860009:33860010:-_ENSMUSG00000042197_ENSMUST00000044455|mus_mus|FALSE|FALSE (ssRNA)
# RNA: GGGAGUUCUACAGUCCGACGAUCGCUGGAGAUAUCCCAAGGAACUGACGAGCUCUCACUUGGCCUAGAAUGAUGAAAUCUAAAACAACUCCUGGACUGCAGAUCACGUAUGACUCGGGACAUCUCAGCCACUUGUGUCUGGAGCAACAGAGGAUUGAGCAUCA
# B17: chr7:54825262:54825263:-_ENSG00000132432_ENST00000352861|hu_hu|hu_hu_hu_mus_False|78_108 (ssRNA)
# RNA: GGGAGUUCUACAGUCCGACGAUCCUGACUUGGCUCAUCCACAAACUGCAUUACCUGCAUGACUGCCGUUGGAUGGCGGAUUGAGAGCGUAGAGACACGUAGCUCAGGAGAGAACCGAGCCCAACGGAACCGGAAGCUGGCAACCAACAGAGGAUUGAGCAUCA
# B18: 77200487_77212898_524_3pUTR_ENSG00000127947_ENST00000248594|human|control|control (ssRNA)
# RNA: GGGAGUUCUACAGUCCGACGAUCUACAUAUGCUUUUGGCCCAUAGACGCCCUUUAUAAAAUUUGCAUUGAUAUAGUCUGAAUCUUGUGAAGGAGUCUUUAAUGUCAAUUUAACUCGGCUGUGAUCAAAUGGCAGUAUGUCCUUCAACAGAGGAUUGAGCAUCA
# B19: chr1:155330963:155330964:-_ENSMUSG00000042699_ENSMUST00000042141|perfect_dup|motif|central (ssRNA)
# RNA: GGGAGUUCUACAGUCCGACGAUCACCUUCCACCUGAACCUCACACAUGAAUUUCUGCCUGUUUUUGUUCCCCACUGCUCGGAUUUCAUAGGAUGGGGUCAUCUUCCUUUUGCCACACCAGGCAUACAGAAAAUUUUUAACGUCCAACAGAGGAUUGAGCAUCA
# B20: chr8:79514634:79514635:+_ENSG00000171033_ENST00000352966|hu_hu|motif|central (ssRNA)
# RNA: GGGAGUUCUACAGUCCGACGAUCACUGUGUUUUAAAAAAGGGUGUUCUAUCCUGUGUACACCACCACAGUAUGGAAAACGGAAAUGAAAAGACAGCCCUUUUAAAAAUGAGUGGUAUAAAAAUUCACAGUAAUGUACAUCAUUCAACAGAGGAUUGAGCAUCA
# B21: chr6:51416610:51416611:-_ENSMUSG00000004980_ENSMUST00000090002|perfect_dup|motif|central (ssRNA)
# RNA: GGGAGUUCUACAGUCCGACGAUCCCUAUCAGUAAUUAUCUCAAUGGUAUCAAUUUUUCCAUAUUCCUCAAAGUAAUCUCGGAGGUGAUGUUCCUCAGUAUCUUCUUUAAUUCCGCCAACAAACAGCUUCUUCACAGUUACAUGCAACAGAGGAUUGAGCAUCA
# B22: chr11:121178941:121178942:+_ENSG00000109929_ENST00000392789|hu_mus|FALSE|FALSE (ssRNA)
# RNA: GGGAGUUCUACAGUCCGACGAUCCUUGAAAAACCAAAAAAAGAAAAAAGAAAAAAAAAUGACACUCACCAAGAUCUUCAGUUAAAUAAUCUCCUAUCUAGACUGAAUUAUGGAAGAGCUGACAUUUAAAAAAAAUACCAUUUACAACAGAGGAUUGAGCAUCA
# Molecular target: T1, UNK ZnF1-3
# Experiment: nsRBNS (natural sequence RNA bind-n-seq); RBNS binding buffer (assumed for nsRBNS): 25 mM Tris pH 7.5, 150 mM KCl, 3 mM MgCl2, 0.01% Triton X-100, 500 ug/ml BSA, 20 U/ml SUPERase-In, 4 C; UNK is unkempt and MSI1 is Musashi-1; names of the RNAs are library labels; protein concentration not given here; high values mean tight binding
row,Binder,binding signal [enrichment R]
1,B1,0.987
2,B2,2.05
3,B3,0.925
4,B4,2.71
5,B5,0.828
6,B6,1.62
7,B7,0.526
8,B8,1.98
9,B9,1.19
10,B10,0.564
11,B11,0.763
12,B12,1.34
13,B13,0.86
14,B14,1.01
15,B15,0.959
16,B16,1
17,B17,1.4
18,B18,1.03
19,B19,0.93
20,B20,1.18
21,B21,1.4
22,B22,3.08
